# Assay results: the RNAGym collection of RNA variant scans (doi:10.1073/pnas.2313332121)
# Variants at the background level are over-represented here.
# B1: TPR 5TU (parent)
# chain: GGAUCUUCUCGAUCUAACAAAAAAGACAAAUCUGCCACAAAGCUUGAGAGCAUCUUCGGAUGCAGAGGCGGCAGCCUUCGGUGGCGCGAUAGCGCCAACGUUCUCAACUAUGACACGCAAAACGCGUGCUCCGUUGAAUGGAGUUUAUCAUG
# Variants of: B1
# Test: polymerase ribozyme fitness, log enrichment relative to wild type (log ratio); higher = more active; in vitro selection for triplet polymerase activity
# How it was run: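 Each subunit of a heterodimeric triplet polymerase ribozyme was represented by a PCR-built, transcribed mutant library that underwent triplicate single-round in vitro selection with frozen incubation at −7 °C. Extended constructs were recovered by gel excision, streptavidin-bead capture and RT-PCR, and Illumina sequencing of input and output libraries kept genotypes with ≥10 input reads and ≥1 read per output. Fitness is the logarithm of genotype enrichment relative to wild-type enrichment, from inverse-variance-weighted replicate averages, with a logarithm base of 2.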
row,Variant,polymerase ribozyme fitness (log ratio)
1,U33C C54G G71U C96U U102G G126C,≤ -4.2
2,U33C C54U G67U C87A C96G A97G U104A C125G U127C U134A,≤ -4.2
3,U33C C57U A60U G81U C87U A91G,≤ -4.2
4,U33C C85G,≤ -4.2
5,U33C C85U A119G,-3.71
6,U33C C87G G152U,≤ -4.2
7,U33C G34U G48A A52G C54U C103G,≤ -4.2
8,U33C G46A C54U U61A C105U C129A C132U G140U,≤ -4.2
9,U33C G67U C69A C93U,≤ -4.2
10,U33C G80C U90G G92A,≤ -4.2
11,U33C G80U A91C A122G,≤ -4.2
12,U33C G80U C93A U109G U111G,≤ -4.2
13,U33C G81C C93U C96A A150G,≤ -4.2
14,U33C G143C,≤ -4.2
15,U33C U53A C116A C125A,≤ -4.2
16,U33C U56A A60C C76A G86A G143U,≤ -4.2
17,U33C U56A G86C A91C A120U G141C,≤ -4.2
18,U33C U56G C93U,≤ -4.2
19,U33C U90C G117U G141U,≤ -4.2
20,U33G,-2.4
21,U33G A37U A60C C75U G94U C108U,≤ -4.2

row,Variant,polymerase ribozyme fitness (log ratio)
1,U33G A39C C54U,-3.84
2,U33G A39U C116A U130G,-3.98
3,U33G A40G A52C C57A G86A U104A C114A,≤ -4.2
4,U33G A40G C54G G59A A66G A91U C99G G126C,≤ -4.2
5,U33G A41C C54A C72U C132U,≤ -4.2
6,U33G A41C U53A C75G G88A,≤ -4.2
7,U33G A41U,≤ -4.2
8,U33G A41U A47U U55C U77C U82G A89G C95A A97C A119G G141C,≤ -4.2
9,U33G A47C U56A A73G G83U C99A,-4.05
10,U33G A49C C75G G92A U101G C105A,-4.15
11,U33G A49C U77C C131G,≤ -4.2
12,U33G A49U A91G G152A,≤ -4.2
13,U33G A52G A73G G92C A107U C114U C125U U134C G141C,≤ -4.2
14,U33G A60U G81C G83A G92A U127A U148A,≤ -4.2
15,U33G A66G G74U C116G,≤ -4.2
16,U33G A113C,-4.01
17,U33G A113U,≤ -4.2
18,U33G C36U A40C C51U C93U U134A A147C,≤ -4.2
19,U33G C38G U82C G84A A98G,≤ -4.2
20,U33G C38U C54G C96U,≤ -4.2
21,U33G C51A G65U C125G,≤ -4.2

row,Variant,polymerase ribozyme fitness (log ratio)
1,U33G C54A A91U C95U A98C U144A,≤ -4.2
2,U33G C54U C96G A147U,-3.24
3,U33G C57A C75U G94U,≤ -4.2
4,U33G C57A C85A C96U,≤ -4.2
5,U33G C57G A89U A138U,≤ -4.2
6,U33G C57U C95A C105U A119C,≤ -4.2
7,U33G C75A G86U G143C,≤ -4.2
8,U33G C87A C96U C99A A138U,≤ -4.2
9,U33G C87A U134G A138U,≤ -4.2
10,U33G C95A,-3
11,U33G C95U A138C G141U,≤ -4.2
12,U33G C99U C116A G143C U145C,≤ -4.2
13,U33G G42A A52G U53A A73U U144G,≤ -4.2
14,U33G G46A A49C U77C A98U C99U G152U,≤ -4.2
15,U33G G46C C95U C99A A107G G133U,≤ -4.2
16,U33G G46C G71A U78G U90G A110C U127C G141C,≤ -4.2
17,U33G G50C G67C U102A C108U U144A,≤ -4.2
18,U33G G50C U56A U134G U145C,≤ -4.2
19,U33G G50U C51G A52C C76A G92A C93A A98U,≤ -4.2
20,U33G G50U U90G C96G,-3.98
21,U33G G58C A120G G133C,-3.81

row,Variant,polymerase ribozyme fitness (log ratio)
1,U33G G59C G68C C69G G71C C72A A73G C96A C114G U127G,≤ -4.2
2,U33G G65A G70C C108U,≤ -4.2
3,U33G G68A C87G C108U A120C G136U,≤ -4.2
4,U33G G68U A89G U109A,≤ -4.2
5,U33G G70U G83U C103G C131G,≤ -4.2
6,U33G G71A C96U A107C U135A,≤ -4.2
7,U33G G80C C85G,≤ -4.2
8,U33G G80C G92A C131A U151A,-4.15
9,U33G G81A C93A A115U A119U,≤ -4.2
10,U33G G81A C93U C125U A142C,≤ -4.2
11,U33G G86U,-3.95
12,U33G G94A C123G G136A,≤ -4.2
13,U33G U44A G46C A73G C76A C95U G133U,≤ -4.2
14,U33G U44G G46U A47C A137G,≤ -4.2
15,U33G U45G A60C G133C,≤ -4.2
16,U33G U53G C54U G58A C69U C85A C114U U151A,≤ -4.2
17,U33G U53G G80A C87A C96G A115C C132A,≤ -4.2
18,U33G U55A A66C G88C C123G U130G G136A C149A,≤ -4.2
19,U33G U55A A89G A110G,≤ -4.2
20,U33G U55A G70A G80C,≤ -4.2
